Measurements as given in publication PMC4336329 (PLoS ONE, 2015).
The whole screen tested about 310,000 compounds, of which about 14,000 (4.5%) showed an effect of 50% or more. Effects have a minus sign here. The list shows a part of the results.

These compounds were tested against human ether-à-go-go-related gene (hERG) potassium channel (human, UniProt Q12809) (assay: primary screen, population patch clamp on CHO cells stably expressing hERG).
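Note: peak tail current of the secondary pulse compared with the same well before compound.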

Chain of human ether-à-go-go-related gene (hERG) potassium channel (Q12809 whole entry, looked up): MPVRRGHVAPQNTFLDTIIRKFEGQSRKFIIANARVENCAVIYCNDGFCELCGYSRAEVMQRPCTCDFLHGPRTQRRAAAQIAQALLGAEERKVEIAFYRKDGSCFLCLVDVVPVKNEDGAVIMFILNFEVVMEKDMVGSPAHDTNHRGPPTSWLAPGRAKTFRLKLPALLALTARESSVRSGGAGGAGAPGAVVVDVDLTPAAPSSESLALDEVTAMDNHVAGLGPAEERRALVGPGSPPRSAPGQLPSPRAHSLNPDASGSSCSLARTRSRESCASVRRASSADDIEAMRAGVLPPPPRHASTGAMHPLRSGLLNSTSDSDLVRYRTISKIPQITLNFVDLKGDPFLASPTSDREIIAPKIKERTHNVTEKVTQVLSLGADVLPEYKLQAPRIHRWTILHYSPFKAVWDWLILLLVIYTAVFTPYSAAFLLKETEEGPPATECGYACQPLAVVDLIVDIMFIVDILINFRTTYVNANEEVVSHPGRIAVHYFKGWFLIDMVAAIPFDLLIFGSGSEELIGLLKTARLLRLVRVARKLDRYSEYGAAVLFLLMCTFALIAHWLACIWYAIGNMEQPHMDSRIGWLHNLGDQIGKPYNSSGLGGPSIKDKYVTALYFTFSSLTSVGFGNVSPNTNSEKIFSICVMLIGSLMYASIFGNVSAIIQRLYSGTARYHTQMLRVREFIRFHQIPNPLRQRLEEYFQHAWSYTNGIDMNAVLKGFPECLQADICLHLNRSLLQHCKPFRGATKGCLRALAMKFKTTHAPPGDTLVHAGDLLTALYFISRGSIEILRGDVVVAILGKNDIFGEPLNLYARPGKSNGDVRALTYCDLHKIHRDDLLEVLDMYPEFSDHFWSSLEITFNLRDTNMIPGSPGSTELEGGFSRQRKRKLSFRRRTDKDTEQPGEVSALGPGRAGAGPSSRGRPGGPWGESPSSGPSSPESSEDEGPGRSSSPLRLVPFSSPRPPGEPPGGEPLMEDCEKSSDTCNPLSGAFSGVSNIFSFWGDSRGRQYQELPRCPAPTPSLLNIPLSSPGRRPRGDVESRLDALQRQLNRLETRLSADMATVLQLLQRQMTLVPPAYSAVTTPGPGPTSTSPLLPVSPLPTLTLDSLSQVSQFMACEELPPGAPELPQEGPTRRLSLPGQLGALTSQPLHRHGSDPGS

Structure (SMILES)	hERG current change (%, negative = inhibition) at 10uM
Cc1c(C(=O)O)c(C(=O)O)nc2ccc(N3CCOCC3)cc12	15%
COc1ccccc1NC(=O)CCSc1nnc(-c2ccncc2)o1	-2.96%
CC(C)C(=O)N1CCC2(CC1)Oc1ccc(Cl)cc1C(=O)C21CC(c2cccnc2)=NO1 (stereo not drawn)	-27.9%
CC(CCc1ccccc1)NC(=O)Cc1ccc([N+](=O)[O-])cc1 (stereo not drawn)	-43.7%
Cc1ccnc(NS(=O)(=O)c2ccc(NC(=O)c3ccc(S(=O)(=O)N4CCCC4)cc3)cc2)n1	7.82%
Cc1ccc(C(=O)Nn2cnnc2)cc1Cl	16.3%
NC(=O)C1(c2ccccc2)OC1c1ccccc1 (stereo not drawn)	26.2%
CC(C)(C)OC(=O)C(C(=O)OC(C)(C)C)c1ccc(Cl)nn1	6%
O=C(CCC1CCCCC1)Nc1nncs1	-3.56%
CC(C)c1ccccc1NC(=O)C1CN(S(=O)(=O)c2ccccc2)CCN1S(=O)(=O)c1ccccc1 (stereo not drawn)	11.4%
CCN1C(=O)c2ccc(C(=O)NCc3ccccc3)cc2C1=O	-4.73%
CCOc1cc2c(cc1OCC)-n1cccc1C(c1cccc([N+](=O)[O-])c1)NC2.Cl (stereo not drawn)	-59.9%
COCCNC(=O)/C(C#N)=C\c1ccc(CNS(=O)(=O)c2ccc(C)cc2)o1	37.1%
O=C1NCCCC1C(=O)NCCNC(=O)C(F)(F)F (stereo not drawn)	14.1%
CCN1C(=O)/C(=C\c2nc3ccccc3c(=O)n2-c2ccccc2)c2ccccc21	16.6%
Cc1cccc(N2CCN(C(=O)c3ccc(CNc4c(N5CCC(C)CC5)c(=O)c4=O)cc3)CC2)c1C	10.5%
O=C(C1=COCCO1)N1CCN(S(=O)(=O)c2cccc(Br)c2)CC1	-13.1%
COCCCNC(=O)C1CCN(C(=O)c2cc3sccc3n2Cc2ccc(F)cc2)CC1	-30%
Cc1cccc(-c2noc(CN(C(=O)c3c(-c4ccccc4Cl)noc3C)C(C)C)n2)c1	-3.05%
Cc1ccc(/C=C/C(=O)c2ccc([N+](=O)[O-])o2)cc1	-6.32%
O=S(=O)(NCCSc1ccccc1)c1ccc2c(c1)OCCO2	3.3%
c1ccc(-c2nnsc2-c2ncc[nH]2)cc1	6.51%
NC1=NC(=O)C(Cc2ccc(F)cc2)S1 (stereo not drawn)	3.59%
CCCN(CCC)c1c([N+](=O)[O-])c(=O)oc2ccccc12	-5.77%
